{"source": "PubChem BioAssay AID2006", "about": "(Sanford-Burnham Center for Chemical Genomics, 2009)", "note": "Among all 290,000 compounds or so, about 1,000 (0.34%) were called active. The inconclusive results got no clear call from the source; some entries with a clear call stand among them for comparison. No stated cut-off is given here; in the data, active means inhibition above about 50% (passing the limit was not always enough); inconclusive means no clear call, values can overlap the other calls.", "data": [{"target": "SUMO-conjugating enzyme UBC9 (Homo sapiens) (UniProt P63279)", "sequence (P63279 whole entry, looked up)": "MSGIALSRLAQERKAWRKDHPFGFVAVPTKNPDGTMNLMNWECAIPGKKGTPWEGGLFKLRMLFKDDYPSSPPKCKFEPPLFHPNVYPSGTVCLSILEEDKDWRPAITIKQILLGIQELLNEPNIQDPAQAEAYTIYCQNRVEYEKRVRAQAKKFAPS", "experiment": "inhibitors of in vitro SUMOylation cascade, primary screen, biochemical, HTRF, uHTS (AID 2006)", "conditions": "HTRF SUMOylation assay, SAE1/SAE2 + UBC9, in vitro; at 35 µM; stronger effect = higher value", "values": [{"smiles": "CSCCC(N=Cc1c(O)n(-c2ccc(F)cc2)c(=O)[nH]c1=O)C(=O)OC(C)(C)C", "note": "(centres undefined)", "inhibition": "inactive: 7.4%"}, {"smiles": "Nc1cc2nc3ccccc3nc2cc1N", "inhibition": "active: 81.1%"}, {"smiles": "C[N+](C)(C)CC(=O)Nc1ccc(Cl)cc1C(=O)c1ccccc1", "inhibition": "inactive: -13.3%"}, {"smiles": "Cc1ccccc1N1C(=O)/C(=C/c2ccco2)C(=O)NC1=S", "inhibition": "active: 97.2%"}, {"smiles": "CCOc1cc(-c2nc3c(C)cccn3c2NCC2CCCO2)ccc1O", "note": "(centres undefined)", "inhibition": "active: 52.1%"}, {"smiles": "CC1(C)CC(=O)C(C2(O)C(=O)NC(=O)NC2=O)=C(O)C1", "inhibition": "inactive: 8.8%"}, {"smiles": "NC(=O)c1c(NC(=O)c2ccc(S(=O)(=O)N(CCCl)CCCl)cc2)sc2c1CCCCC2", "inhibition": "inconclusive: 69.7%"}, {"smiles": "CCc1nc2ccc(N3CCN(C)CC3)cc2nc1CC", "inhibition": "inconclusive: 60.8%"}, {"smiles": "Cc1nc2ccc(N3CCN(C)CC3)cc2nc1C", "inhibition": "inconclusive: 71.5%"}, {"smiles": "COc1ccc(C(=O)C2CCCN(Cc3ccc(C)s3)C2)cc1OC", "note": "(centres undefined)", "inhibition": "inconclusive: 55.2%"}, {"smiles": "Cc1ccsc1C(=O)C1CCCN(Cc2ccc(-n3cccn3)cc2)C1", "note": "(centres undefined)", "inhibition": "active: 65.4%"}, {"smiles": "CNC(=O)OCc1n(C)cc[n+]1C", "inhibition": "inactive: 5.2%"}, {"smiles": "Nc1ccc2ccc3cccc[n+]3c2c1", "inhibition": "inconclusive: 90.3%"}, {"smiles": "CC1Oc2cc3c(-c4c(O)cc(O)c5c(O)c6c(cc45)OC(C)C(C)C6=O)c(O)cc(O)c3c(O)c2C(=O)C1C", "note": "(centres undefined)", "inhibition": "inconclusive: 58.4%"}, {"smiles": "CCc1sc(C(=O)N2CCC3(CC2)OCCO3)cc1Br", "inhibition": "inconclusive: 96.6%"}, {"smiles": "COc1cccc(-c2nc3ccc(N4CCN(C)CC4)cc3[nH]2)c1", "inhibition": "inconclusive: 63.8%"}, {"smiles": "O=c1[nH]c(=O)n(-c2ccc(F)cc2)c(O)c1C=Nc1ccccc1N1CCCC1", "inhibition": "inconclusive: 62.4%"}, {"smiles": "CCOc1ccc(-c2cc(C)[n+](CCO)c(-c3ccc(OCC)cc3)c2)cc1", "inhibition": "inconclusive: 66.1%"}, {"smiles": "COc1ccc2c3c([nH]c2c1)C(C)=NCC3", "inhibition": "inconclusive: 53%"}, {"smiles": "COc1ccc(N2C(=O)NC(=O)/C(=C/c3ccc([N+](=O)[O-])s3)C2=O)cc1", "inhibition": "active: 50.8%"}, {"smiles": "Cc1nc2c(=O)n(C)c(=O)nc-2n(C)n1", "inhibition": "active: 103%"}, {"smiles": "CCN(C(C)=O)c1cccc(-c2ccnc3c(C#N)cnn23)c1", "inhibition": "inconclusive: 55.2%"}, {"smiles": "COCCOC(=O)c1c(N)n(Cc2ccc(OC)cc2)c2nc3ccccc3nc12", "inhibition": "inactive: 20.6%"}, {"smiles": "O=C(O)c1cccc2c1NC(C(=O)O)C1CC(Sc3ccccc3[N+](=O)[O-])C(Cl)C21", "note": "(centres undefined)", "inhibition": "inconclusive: 91.9%"}]}]}
